This note sets out measurements from the RNAGym collection of RNA variant scans (doi:10.7554/elife.90254).

First the molecules themselves.
B1: LINE1-mini (parent)
chain: GGCAGAGCUCAACACAGCGUGGCAAAGUGGCUGUGGCUAGACUGCC

Read counts are not given, so values of variants with three or more changes are uncertain.

Variants of B1 are the subject of this series. Nature of the series: self-cleavage, relative activity (ratio to wild type); higher = more cleavage; in vitro, sequencing; the parent is a self-cleaving ribozyme.
In the case of GGCAGCGCUCAACACAGCGUUGCAAAGUGGCUGAGGCCAGACUGAC, the self-cleavage is 0.01.
With GGCAGCGCUCAACACAGCGAGGGAAAGUGGCUGUGGCUAGACUGCC the figure was 0.07; with GGCAGGGCUCUACACAGUAUGGCAAAGUGGCUGUGGCUAGACUGGC, 0.02; with GGCAGCGCUCAACACAGCGUUGCAAAGUGGCUGUGGCUAAACUGCC, 0.12.
Consider GGCAGCGCUCAACACAGCGUGGCAAAGUGGCGGUGGCUAGAAUGCC, for which the self-cleavage was 0.06.
Turning to GGCAGGGCUCAGCACAGCGUGGCAAAGAGGCUGUGGCUAGACCGCA, the self-cleavage is 0.
In the case of GGCAGGGCUCGACACAGCGUGGCCAACUGUCCGUGGCUAGACUGCC, the self-cleavage is 0.01.
With GGCAGCGCUCAACACAGCGUGGCAAAGUGGCUAUGGCUAGACUGGU, the self-cleavage was 0.05.
As for GGCAGCGCUCAACACAGCGUGGUAAAGUGGCAGUGGCUCGACUGCC, the self-cleavage came out at 0.04.
Take GGCAGCGCUCAACACAGCGUGGCAAAGUCCCUGUGGCUAGACUGCA: the self-cleavage is 0.02.
In the case of GGCAGCUCUCAACACAGCGUGGCAAACUGGCUGUGGCUAGACUGCC, the self-cleavage came to 0.06.
With GGCAGGGCUCGACACAGCCUAGCAAAGUGCCUUUGGCUAGACUGCC the figure was 0.
With GGCAGGGCUCCACACAGCGUGGCAUAGCGGCUGUGGCUAGACUACC the figure was 0.01; with GGCAGCGCCCAAUACAGCGUGGCAAAGUGGCUGUGGCUAGACUGCC, 0.01; with GGCAGCGCGCAACACAGCUUGGCAAAGUGGCUGUGGCUAGACUGCC, 0.1.
With GGCAGCGCUCAACACAGCGUGGCAAAGUGGCUGUGGCUACACCGCC the figure was 0.06; with GGCAGGGCUCUACACAGCGUGGCAAAGUCGCUGUGGCUAGACUUCC, 0.02; with GGCAGCGCUCAACACAGCGUGGCAAAGUGGCUCUGGCUUGACUGUC, 0.03.
Turning to GGCAGCGCGGAACACAGCGCGGCAAAGUGGCUGUGGUUAGACUGCC, the self-cleavage came to 0.01.
In the case of GGCAGCGCUCAACACAGCGUGGCAAAGUGAUUGUGGCUAGACUGCC, the self-cleavage was determined as 0.1.
Regarding GGCAGGGCUCUACACAGCAUGGCAAAGUGGCUGUGUCUAGACUGCC, the self-cleavage came to 0.01.
GGCAGCGCUCAACACAGCGCGGCAAAGUGGCUGUGGUUAGACUGCC: the self-cleavage came to 0.05.
On to GGCAGCCCUCAACACAGCGUGGCGAAGUCGCUGUGGCUAGACUGCC, for which the self-cleavage amounted to 0.02.
The value for GGCAGGGCUCAGCACAGCCUGGCAAAGCGGCUGUGGCUAGACUGCC was 0.02; that for GGCAGCGCUCAACACAGCGUGGCAAAAUGGCUGUGGCAAGACUGCC was 0.27.
With GGCAGCGCUCAACACAUAAUGGCAAAGUGGCUGUGGCUAGACUGCC the figure was 0.1.
As to GGCAGGGCUCAGCACAGCGUGGCAAAGUGCCUGCGGCUAGACUGCC, the self-cleavage turned out to be 0.03.
The value for GGCAGCGCUCAACACAGCGUGGCAAAGUUGCUGAGGCUAGACUGCC was 0.27.
For GGCAGGGCUCACCACAGCGUGGCAAAGUGGCUGUGGCAAGACUGCC, the self-cleavage was determined as 0.03.
The value for GGCAGCGCUCAACACAGCGUGGCAAAGUGCGUGUCGCUAGCCUGCC was 0.04.
For GGCAGGGCUCUUCACAGCGUGGCAAAGUGGCUGUGCCUAGACUGCC, the self-cleavage was 0.02.
The value for GGCAGCUCUUAUCACAGCGUGGCAAUGUGGCUGUGGGUAGACUGCC was 0; that for GGCAGCGCUCAACACAGCAUGGCAAAGUGGCUGUGGCUAGACUGGC was 0.35; that for GGCAGCGCUCAACACAGCGUGGGAAGGUGGUUCUGGCUAGACUGCC was 0.19.
With GGCAGGGCUCACCACAGAGUGGCAAAGUGGCUGUGGCUAAACUGCC the figure was 0.02; with GGCAGCGCUCAACACAGCGGGGCAGAGUGGCUGUGGCUAGACUGCC, 0.12; with GGCAGCGCUCAACACAGCGUGGAAAAGUGGCUGAGGCUAGACUGCC, 0.03.
With GGCAGCGCUCAACACAGCGUGGCAAAGUAGCUGUGGUUAGACUGCC the figure was 0.06.
Consider GGCAGCCCUCAACACACCGUGGCAAAGUGGCUGUGGCUAGCCUGCC, for which the self-cleavage amounted to 0.02.
The value for GGCAGCACUCAACACAGCGUGGGAAAGUGGAUGUGGCUAGACUGCC was 0.05; that for GGCAGCGCUCAACACAGCGUGGCAAAGUGGCAGUGGCUAAACUGCC was 0.01.
The value for GGCAGCGCUCAACACAGCGUGGCAAAAUGGCUGUGGCUGGACUGCC was 0.12; that for GGCAGGGCUCGACACAGCGUGGCAAAGAGGCUGUGGCUGGACUGCC was 0.01; that for GGCAGCGCUCAACACAGCAUGGCAAAGUGGCUGCGGCUAGACUGCC was 0.11.
The value for GGCAGCGCUCAACACAGCGUGACACAGUGGCUGUGGCUAGAUUGCC was 0.16.
For the variant GGCAGCGCUCAACACAGCGUGGCAAAGUGGUUGUAGCUUGUCUGCC, the self-cleavage stood at 0.04.
The value for GGCAGCGCUCAACACACCAUGGCAAAGUGACUGUGGCUAGACUGCC was 0.87.
GGCAGCGCUCAACACAGCGUGACAAAGUGGAUCUGGCUAGACUGCC: the self-cleavage came to 0.02.
For the variant GGCAGCGCUCAACACAGCGUGCCAAAGUGGCCGUGGCUAGACUGCC, the self-cleavage was determined as 0.02.
With GGCAGCGCUCAACACAGCGUGGCAAAGUGGCUGUGUAUAUACUGCA the figure was 0.05; with GGCAGCUCUCAACACAGCGUGGCAAAGUAGCUGUGGCUUGACUGCC, 0.3; with GGCAGCGCUCAACACAGCGUGGCAAAGUGGCUGUUGCUAGACUGCG, 0.07.
Turning to GGCAGCGCUCAACACAGCGUGGCAAAAUGGCUGUAGCUAGACUGCC, the self-cleavage turned out to be 0.4.
With GGCAGCCCUCAACACAGCGUGGCAAAAUGGCUGUGGCUAGACUGCC the figure was 0.12; with GGCAGGGCUCAGCACAGCGUGGCAAAGUGUCUGUGACUAGACUGCC, 0.01.
With GGCAGCGCUCAACACAGCGUGGCAAAGUCGCUCUGGCUAGCCUACC the figure was 0.03.
